The subject of the data set is ATP. As to the kind of experiment: switch fluorescence ratio, 500 uM ATP over buffer (Cy3 cluster intensity, sum of 5 cycles each) (fold (ratio)); higher = stronger signal-on switching upon ATP binding; sequences stand for … in TCGTCGGCAGCGTCAGATGTGTATAAGAGACAGTTTTTTTTTTTTTTTTTTTTTTTTT…TC. The settings on record: aptamer strand: ATP DNA aptamer (quencher-CACCTGGGGGAGTATTGCGGAGGAAGG + anchor), 100 nM annealed; ATP concentration: 500 uM; one replicate. The procedure, abridged: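 Per cluster, summed Cy3 intensity from the target cycles was divided by that from the buffer cycles to give the fluorescence ratio, then averaged per switch-domain sequence. Clusters outside 100-1000 RFU were excluded. The Cy3-labelled switching-strand clusters, on a modified Illumina MiSeq flow-cell, were annealed to 100 nM quencher-labelled ATP aptamer and imaged in selection buffer, then after 15 min with 500 uM ATP at 22 °C, for five cycles with NaOH stripping and re-annealing between them.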

Values marked as one replicate rest on one cluster of the flow cell; about a third of the high ones do not repeat.
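Further: ATP exposure 15 min at 22 °C before imaging.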

Consider CTACGGGCA, for which the switch fluorescence ratio was 1.07.

For the sequence ACGCAGTATC, the switch fluorescence ratio is 1.4.

As to GATAACCATA, the switch fluorescence ratio was 1.02.

With CAATGGAAGT, the switch fluorescence ratio amounted to 0.995.

For AGTAATAACC, the switch fluorescence ratio is 1.08.

On to TCCGGGCAAG, for which the switch fluorescence ratio came to 2.87.

Consider TAGTTATAGT, for which the switch fluorescence ratio worked out at 0.967.

With AATGAGGAC, the switch fluorescence ratio was 1.29.

With AGTGCGGGCA, the switch fluorescence ratio was 0.973.

For CCTAATATTG, the switch fluorescence ratio is 0.993.

CCGGGGGTCT: the switch fluorescence ratio is 0.999.

As to CTTTACTGGT, the switch fluorescence ratio turned out to be 1.03.

On to AAAATGGACG, for which the switch fluorescence ratio turned out to be 1.11.

For GTTATTACTA, the switch fluorescence ratio turned out to be 1.

For the sequence TTATCCCCGG, the switch fluorescence ratio turned out to be 1.16.

On to TAGAACCCT, for which the switch fluorescence ratio was found to be 1.05.

Regarding ACGGGCGGAT, the switch fluorescence ratio was found to be 0.973.

Consider CAGTATGAGC, for which the switch fluorescence ratio worked out at 1.04.

As for GTTGGGCTCC, the switch fluorescence ratio was found to be 0.942.

As for CTCAAAACGT, the switch fluorescence ratio stood at 1.04.

For AAGTTTTTT, the switch fluorescence ratio was 1.

Consider GGTAGACAG, for which the switch fluorescence ratio was 0.986.

Consider ATCTGAGATT, for which the switch fluorescence ratio amounted to 1.03.

For the sequence ACAGTGTTCC, the switch fluorescence ratio came to 1.05.

As to TGCCGCCAGT, the switch fluorescence ratio came out at 1.04.

As for TGAACCAAAA, the switch fluorescence ratio stood at 1.14.

In the case of TTGGTTCTA, the switch fluorescence ratio was 1.02.

TTATAGGGGC: the switch fluorescence ratio is 0.961.

In the case of TCTCAT, the switch fluorescence ratio was found to be 1.05.

Regarding GGACTATATG, the switch fluorescence ratio came to 0.99.

CGCTTCCTGG: the switch fluorescence ratio is 1.11.

For the sequence ATTTGCCTTC, the switch fluorescence ratio was 1.13.

For the sequence GTTTCTTATG, the switch fluorescence ratio was found to be 0.904.

As for AGTCCATATC, the switch fluorescence ratio came to 0.983.

On to GAATAAGCAC, for which the switch fluorescence ratio was determined as 1.29.

Take CCTGACGTGA: the switch fluorescence ratio came out at 2.27.

As to AGTTATAGG, the switch fluorescence ratio was 1.01.

Consider ATTAGAGACA, for which the switch fluorescence ratio was determined as 0.999.

GCGCTGATGT: the switch fluorescence ratio was determined as 1.01.

With AGGCTGTTTG, the switch fluorescence ratio was 1.

For the sequence TGATTGAC, the switch fluorescence ratio was 1.01.

As to ATGAGTACTG, the switch fluorescence ratio stood at 1.07.

Regarding GTTTTTCCGA, the switch fluorescence ratio turned out to be 1.05.

With AAAAACTCAA, the switch fluorescence ratio is 1.07.

For ACACGCAGGG, the switch fluorescence ratio stood at 0.964.

Consider ATTTGAGCGG, for which the switch fluorescence ratio came out at 1.04.

Take AAAGTATCGG: the switch fluorescence ratio was 1.01.

On to GCGTTCGGT, for which the switch fluorescence ratio worked out at 0.976.

In the case of CGTTTGGTTC, the switch fluorescence ratio worked out at 1.02.

For AATTCGCTCT, the switch fluorescence ratio was determined as 1.05.

CGTAATTATA: the switch fluorescence ratio was found to be 0.994.

Take CGTTATTACT: the switch fluorescence ratio amounted to 1.06.

Take GTCCCGCCTT: the switch fluorescence ratio was 1.06.

With CGGGAAGACT, the switch fluorescence ratio was 1.

TGAGACGTTA: the switch fluorescence ratio came to 0.977.

Take GGCCGAAGCT: the switch fluorescence ratio stood at 1.02.

Take GTGAGTTCAT: the switch fluorescence ratio is 0.951.

For CTCGGGCGCA, the switch fluorescence ratio worked out at 1.04.

For CCTAGTGTCA, the switch fluorescence ratio was 1.01.

As for ACGAGCGAAT, the switch fluorescence ratio is 1.56.

Regarding AGTGGCGAGC, the switch fluorescence ratio amounted to 0.983.

As to ATTCTAAGAA, the switch fluorescence ratio stood at 0.987.

Take TGCGGTTTCG: the switch fluorescence ratio is 0.97.

Turning to TTTGACGCAA, the switch fluorescence ratio came out at 6.1.

As for AGGTGATGCA, the switch fluorescence ratio was found to be 1.05.

Turning to AACATCGAGG, the switch fluorescence ratio was 1.04.

Consider GCGGGTGTTG, for which the switch fluorescence ratio was determined as 0.98.

CAGTGCGAGT: the switch fluorescence ratio was 1.02.

In the case of AATTTTATTC, the switch fluorescence ratio turned out to be 1.02.

As for AAGGAAAAAT, the switch fluorescence ratio is 1.

Turning to TCACAGCAGC, the switch fluorescence ratio came out at 1.47.

On to TTACTCGAGA, for which the switch fluorescence ratio is 1.02.

Regarding TCCCTGAAGC, the switch fluorescence ratio came to 1.07.

On to AGTTAGGT, for which the switch fluorescence ratio stood at 0.944.

In the case of ATGGTCCAAT, the switch fluorescence ratio came to 0.966.

Take CCGGAACGTA: the switch fluorescence ratio amounted to 1.07.

Turning to CGGGAGAGCG, the switch fluorescence ratio was 0.989.

Regarding GTTGCTGTAT, the switch fluorescence ratio was 1.03.

As to GTTTCATTTA, the switch fluorescence ratio was 1.01.

Regarding ACTCGATCCT, the switch fluorescence ratio came to 1.01.

For TCATAGGAAC, the switch fluorescence ratio amounted to 1.05.

For the sequence CCAATAGGTT, the switch fluorescence ratio stood at 1.

CAATACACTA: the switch fluorescence ratio was 1.11.

As to GGTACAACGG, the switch fluorescence ratio worked out at 1.

With GGTTCCTATT, the switch fluorescence ratio worked out at 1.

Regarding GGCTTGATTT, the switch fluorescence ratio turned out to be 0.998.

For the sequence CCTATAGTGA, the switch fluorescence ratio amounted to 1.16.

Consider AATGATAGCG, for which the switch fluorescence ratio turned out to be 1.05.

Take GGCTAGCTTG: the switch fluorescence ratio worked out at 1.01.

As for AATAACATAG, the switch fluorescence ratio was found to be 1.03.

Take AACGCGGCGA: the switch fluorescence ratio was 1.04.

On to GCTTTCTGTA, for which the switch fluorescence ratio amounted to 0.993.

As to AGAACGTGGT, the switch fluorescence ratio was determined as 1.

AGTTGCAACG: the switch fluorescence ratio was determined as 0.973.

As for AATAGGTGTG, the switch fluorescence ratio amounted to 1.03.

Take GCTTTCAGGT: the switch fluorescence ratio worked out at 1.

As to GCACGATAGG, the switch fluorescence ratio is 1.03.

For AGCGGCATAA, the switch fluorescence ratio turned out to be 1.04.

CGTCTATGGA: the switch fluorescence ratio was found to be 1.02.

On to GGCTAAAGTG, for which the switch fluorescence ratio was determined as 0.961.

Regarding CCAGTCGAGC, the switch fluorescence ratio was determined as 0.969.

As to ATTTCAAGGA, the switch fluorescence ratio was 0.995.

Regarding CAAAAAGTGC, the switch fluorescence ratio amounted to 0.976.

AGGATGACTA: the switch fluorescence ratio was found to be 1.04.

With GTGTTTCCCG, the switch fluorescence ratio came to 1.01.

For the sequence AAATGTGTTC, the switch fluorescence ratio is 1.02.

For the sequence GTAGGGCGTC, the switch fluorescence ratio is 1.02.

For the sequence GCGAGGGCGT, the switch fluorescence ratio is 1.02.

On to CCAAGGTTCC, for which the switch fluorescence ratio was determined as 1.07.

For the sequence TACAGGACGG, the switch fluorescence ratio was found to be 1.12.

Take CCCGTACAAT: the switch fluorescence ratio turned out to be 1.57.

As for GTTGAGACGG, the switch fluorescence ratio turned out to be 0.955.

Take GAGATAGAAG: the switch fluorescence ratio is 0.997.

With CCCTCACATT, the switch fluorescence ratio was found to be 1.03.

Take TGGGTCGCAA: the switch fluorescence ratio turned out to be 1.12.

Regarding AACAGGTCGC, the switch fluorescence ratio is 1.01.

For GGCGAATTTA, the switch fluorescence ratio is 1.04.

AGGCCGATAG: the switch fluorescence ratio was 1.01.

In the case of GCGAAGGCTG, the switch fluorescence ratio is 0.976.

For GTAATTGCGC, the switch fluorescence ratio came to 0.996.

The record behind these values is the supplement of paper PMC10126150.
